In the supplement of paper PMC10502849:
Where a name gives a salt, the structure may show the parent alone. Some of the results follow. Repeats are few or missing, and single values can be far off.

Key:
[1] = test system: H9 teratoma-derived LAM model cells, TSC2-/-; experiment: percent SyTOX+ dead cells; higher = more cytotoxic; conditions: 5 µM, treatment time 72 h, culture: 3D hyaluronic acid hydrogel
[2] = test system: H9 teratoma-derived LAM model cells, WT; experiment: percent SyTOX+ dead cells; higher = more cytotoxic; conditions: 5 µM, treatment time 72 h, culture: 3D hyaluronic acid hydrogel, genotype: WT
[3] = test system: H9 teratoma-derived LAM model cells, TSC2-/-; experiment: percent of cells invaded past median invasion distance of vehicle control; LAM is lymphangioleiomyomatosis; the cells come from teratomas of the human stem cell line H9; higher = more invasion; extreme values may be limits of the assay; conditions: 5 µM, treatment time 72 h, culture: 3D hyaluronic acid hydrogel
[4] = test system: H9 teratoma-derived LAM model cells, WT; experiment: as above; conditions: 5 µM, treatment time 72 h, culture: 3D hyaluronic acid hydrogel, genotype: WT
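For percent SyTOX+ dead cells in this document: cells seeded atop a hyaluronic acid gel crosslinked via MMP-cleavable peptides, containing vitronectin peptides and methylcellulose, imaged live by high-content microscopy with automated analysis, one technical replicate per compound.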
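For percent of cells invaded past median invasion distance of vehicle control in this document: live cells imaged by high content microscopy and scored with in-house automated image analysis, one technical replicate per compound in each genotype and rapamycin condition.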

Compound | percent SyTOX+ dead cells ([1]; rapamycin 0 nM) [%] | percent SyTOX+ dead cells ([1]; rapamycin 20 nM) [%] | percent SyTOX+ dead cells ([2]; rapamycin 0 nM) [%] | percent SyTOX+ dead cells ([2]; rapamycin 20 nM) [%] | percent ([3]; rapamycin 0 nM) [%] | percent ([3]; rapamycin 20 nM) [%] | percent ([4]; rapamycin 0 nM) [%] | percent ([4]; rapamycin 20 nM) [%]
COc1cccc2cc(-c3nc([C@H]4CC[C@H](C(=O)O)CC4)n4ncnc(N)c34)[nH]c12 [OSI-027 hydrochloride] | 2.82 | 2.03 | 16.3 | 10.8 | 55.4 | 90.2 | 46.7 | 65.3
CC1(C)CNc2cc(NC(=O)c3cccnc3NCc3ccncc3)ccc21 [Motesanib diphosphate salt, AMG-706] | 8.33 | 17.2 | 25.6 | 18.3 | 18.5 | 26.9 | 8 | 15.7
[O-][S+](c1ccccc1)c1ccc2nnnn2n1 (configuration not stated) | 8.21 | 9.03 | 7.47 | 11.1 | 30.7 | 37.9 | 51.8 | 36.1
Cc1ccccc1C(C(=O)NC1CCCCC1)N(C(=O)Cn1ccnc1C)c1cccc(F)c1 (configuration not stated) | 25.1 | 17.6 | 18.9 | 22.9 | 51 | 13.7 | 43.6 | 41.1
N#CC1(c2ccc(NC(=O)c3cccnc3NCc3ccncc3)cc2)CCCC1 [Apatinib mesylate, YN-968D1] | 3.08 | 5.43 | 16.3 | 13.1 | 34.6 | 51.9 | 17.8 | 29.7
CC(C)C[C@H](NC(=O)CNC(=O)c1cc(Cl)ccc1Cl)B(O)O [MLN2238, MLN-2238, Ixazomib] | 9.6 | 7.8 | 8.27 | 8.95 | 44 | 42.5 | 43.1 | 52.2
COc1cc2c(N3CCN(C(=O)Nc4ccc(OC(C)C)cc4)CC3)ncnc2cc1OCCCN1CCCCC1 | 9.09 | 31.1 | 18.4 | 24.2 | 36.4 | 18.4 | 10.7 | 6.67
CS(=O)(=O)CCNCc1nc(-c2ccc3ncnc(Nc4ccc(OCc5cccc(F)c5)c(Cl)c4)c3c2)cs1 | 10.7 | 10.4 | 7.26 | 6.02 | 55.3 | 13.1 | 39.7 | 18.7
COc1cc2c(NC3CCN(C4CCCCC4)CC3)nc(N3CCCN(C(C)C)CC3)nc2cc1OCCCN1CCCCC1 | 14.1 | 11.6 | 12 | 18.2 | 59.1 | 52.2 | 61.1 | 68.9
O=C(/C=C/c1cccc(S(=O)(=O)Nc2ccccc2)c1)NO | 27.7 | 28.5 | 30.6 | 12 | 3.39 | 2.68 | 0 | 1.41
CC[C@@H]1C(=O)N(C)c2cnc(Nc3ccc(C(=O)NC4CCC(N5CCN(CC6CC6)CC5)CC4)cc3OC)nc2N1C(C)C (some centres not stated) [BI-6727, volasertib] | 50.5 | 26.2 | 40.2 | 31 | 10.7 | 43.8 | 16.8 | 31
CCOC(=O)CCNc1cc(N2CCc3ccccc3CC2)nc(-c2ccccn2)n1 | 14.6 | 14.9 | 12.7 | 11.8 | 28.2 | 36.8 | 46.6 | 26.4
O=S(=O)(c1cccc2c(Cl)cccc12)N1CCCNCC1 [ML 9 hydrochloride] | 12.3 | 15.1 | 13.4 | 18.8 | 29.2 | 14.4 | 32.1 | 26.1
Clc1ccc(C2(c3ccc(-c4cn[nH]c4)cc3)CCNCC2)cc1 | 14.4 | 15.6 | 64.2 | 61.3 | 5.48 | 1.83 | 3.25 | 0
Cc1cccc(-c2[nH]ncc2-c2ccc3ncccc3n2)n1 | 2.48 | 1.49 | 13.6 | 14.3 | 98.8 | 53 | 86.7 | 29.1
O=C(NC1CCOCC1)c1ccc(-c2cc(-c3c[nH]nc3-c3ccccn3)ccn2)cc1 | 2.97 | 5.39 | 21.1 | 16.7 | 60.9 | 50.3 | 44.8 | 13.8
O=c1c(O)c(-c2ccc(O)c(O)c2)oc2cc(O)cc(O)c12 [Quercetin] | 10.7 | 14.2 | 26.1 | 15.1 | 54.1 | 29 | 6.15 | 15.1
O=C(O)c1cc(N(Cc2ccccc2O)Cc2cc(O)ccc2O)ccc1O | 12.5 | 11.8 | 6.47 | 6.84 | 32.2 | 18.3 | 31.4 | 19.5
Cc1nc(Nc2ncc(C(=O)Nc3c(C)cccc3Cl)s2)cc(N2CCN(CCO)CC2)n1 | 35.6 | 26.9 | 56.5 | 71.7 | 0 | 0 | 0 | 0
COc1cc([C@@H]2c3cc4c(cc3[C@@H](O[C@@H]3O[C@@H]5CO[C@@H](c6cccs6)O[C@H]5[C@H](O)[C@H]3O)[C@H]3COC(=O)[C@H]23)OCO4)cc(OC)c1O [Teniposide; VM-26; Vumon; Podophyllotoxins] | 7.75 | 9.52 | 7.2 | 10 | 46.8 | 34.8 | 33.1 | 35.6
CCCCCCCCCCCCCCCc1cccc(O)c1C(=O)O [Anacardic Acid] | 2.41 | 20.4 | 17.1 | 14.1 | 72.6 | 55.2 | 25.6 | 29.4
Cc1cc(CN2CCN(c3c(Br)cnc4nc(-c5ccc(N6CCN(C)CC6)cc5)[nH]c34)CC2)no1 | 41.2 | 37.5 | 44.8 | 45.6 | 21.5 | 10.5 | 1.58 | 0.73
O=S(=O)(NCCSSCCNS(=O)(=O)c1cc(Cl)ccc1Cl)c1cc(Cl)ccc1Cl | 12.6 | 18.2 | 10.2 | 7.74 | 46.5 | 35.6 | 35.3 | 37.1
COc1cc(N2CCC(N3CCN(C)CC3)CC2)ccc1Nc1ncnc(Nc2ccccc2S(=O)(=O)C(C)C)n1 | 9.44 | 9.22 | 31.5 | 23.6 | 91.1 | 36.2 | 71 | 23.1
CC[C@@H]1/C=C(\C)C[C@H](C)C[C@H](OC)[C@H]2O[C@@](O)(C(=O)C(=O)N3CCCC[C@H]3C(=O)O[C@H](/C(C)=C/[C@@H]3CC[C@H](Cl)[C@H](OC)C3)[C@H](C)[C@@H](O)CC1=O)[C@H](C)C[C@@H]2OC [Pimecrolimus, Elidel, SDZ-ASM-981] | 9.43 | 12.2 | 27.9 | 17.7 | 26.4 | 39.3 | 2.42 | 9.09
O=c1[nH]nc(Sc2ncc([N+](=O)[O-])s2)n1-c1ccc2c(c1)OCCO2 | 48.6 | 36 | 44.6 | 37.5 | 0 | 0 | 0 | 2.08
CC(=O)Nc1ccc(NC(=S)NC(=O)c2ccc(C(C)(C)C)cc2)cc1 [Tenovin-1] | 44 | 48.9 | 40.4 | 41.9 | 1.37 | 6.07 | 3.11 | 4.11
Cc1ccc(-c2cn3c4c(sc3n2)CCCC4)cc1 [Cyclic Pifithrin-alpha hydrobromide] | 9.63 | 13.4 | 27 | 7.89 | 80.8 | 28.1 | 16.7 | 15.1
COc1cc2ncnc(Nc3ccc(Oc4ccccc4)cc3)c2cc1OC | 9.94 | 8.92 | 60.8 | 40 | 11.6 | 12.7 | 4.12 | 15.4
